Measurements published in the RNAGym collection of RNA variant scans (doi:10.7554/elife.90254).
The source gives no read counts; variants with many changes may rest on few reads.

B1: LINE1-mini (parent)
chain: GGCAGAGCUCAACACAGCGUGGCAAAGUGGCUGUGGCUAGACUGCC

Variants of: B1
Assay: self-cleavage, relative activity (ratio to wild type); higher = more cleavage; in vitro, sequencing; the parent is a self-cleaving ribozyme

With GGCAGAACUCAACACAUCGUGGCAAAGGGACUGUGUCUAGACUGCC [G7A G17U U28G G30A G36U] as the variant, how does the self-cleavage read?
Its self-cleavage is 0.03.

Which self-cleavage does the source give for GGCAGAACUCAACACAUCGUGGCAAAGUGGCUGUGGCUAGACAGCU [G7A G17U U43A C46U] here?
The self-cleavage was 0.11.

With GGCAGAACUCAACACAGCAUGGCAAAGUGGCUGUGGCUAGACUGCA [G7A G19A C46A] as the variant, how does the self-cleavage read?
The self-cleavage was 0.08.

With GGCAGAACUCAACACAGCAUUGCAAAGUGGCUGUGGCUAGACUGCC [G7A G19A G21U] as the variant, how does the self-cleavage read?
Its self-cleavage is 0.06.

With GGCAGAACUCAACACAGCAUGGCAAAGUGCGUGUGGCUAGACUGCC [G7A G19A G30C C31G] as the variant, how does the self-cleavage read?
The self-cleavage was 0.04.

For GGCAGAACUCAACACAGCAUGGCAAAGUGGCUUUGGCUAGACUGCC [G7A G19A G33U], which self-cleavage is on record?
The self-cleavage was 0.2.

For GGCAGAACUCAACACAGCAAGGCAAAGUGGCUGUGGCUAGACUGCC [G7A G19A U20A], which self-cleavage is on record?
The self-cleavage was 0.06.

With GGCAGAACUCAACACAGCAUGGCAAAGAGGCUGUGGCUAGACUGCC [G7A G19A U28A] as the variant, how does the self-cleavage read?
The self-cleavage was 0.24.

With GGCAGAACUCAACACAGCCUGGCGAAGUGGCUGAGGCUCGACUGCC [G7A G19C A24G U34A A39C] as the variant, how does the self-cleavage read?
Its self-cleavage is 0.03.

With GGCAGAACUCAACACAGCCUCGCAAACUGGCUGUGGCAAGACUGCC [G7A G19C G21C G27C U38A] as the variant, how does the self-cleavage read?
Its self-cleavage is 0.02.

For GGCAGAACUCAACACAGCCUUGCAAAGUGGCUGUGGCUAGACUGGC [G7A G19C G21U C45G], which self-cleavage is on record?
Its self-cleavage is 0.04.

Which self-cleavage does the source give for GGCAGAACUCAACACAGCCUGGCAAAGCGGCUGUGGCUAGACUGCC [G7A G19C U28C] here?
The self-cleavage was 0.03.

With GGCAGAACUCAACACAGCUUGGCAGAGUGGCUGUGGCUAGACUGCC [G7A G19U A25G] as the variant, how does the self-cleavage read?
The self-cleavage was 0.21.

Which self-cleavage does the source give for GGCAGAACUCAACACAGCUUGGCAAAGUGGCUGUGGCUGGACUGCC [G7A G19U A39G] here?
The self-cleavage was 0.07.

With GGCAGAACUCAACACAGCUUGGAAAAGUGGCUGUGGCUAGACUUCC [G7A G19U C23A G44U] as the variant, how does the self-cleavage read?
Its self-cleavage is 0.06.

Which self-cleavage does the source give for GGCAGAACUCAACACAGCUUGGCAAAUUGGCUGUGGCUAGACGGCC [G7A G19U G27U U43G] here?
Its self-cleavage is 0.02.

For GGCAGAACUCAACACAGCUUGGCAAAGUUGCUAUGGCUCGAGUGAC [G7A G19U G29U G33A A39C C42G C45A], which self-cleavage is on record?
The self-cleavage was 0.04.

With GGCAGAACUCAACACAGCUUGGCAAAGUGGCUUUGGCUAGAGUGCC [G7A G19U G33U C42G] as the variant, how does the self-cleavage read?
Its self-cleavage is 0.05.

Which self-cleavage does the source give for GGCAGAACUCAACACAGCUUGGCAAAGUGGCUUUGGCUACAAUGCC [G7A G19U G33U G40C C42A] here?
The self-cleavage was 0.04.

For GGCAGAACUCAACACAGCUUGGCAAAGUGGCUGUCGCUACACUGCC [G7A G19U G35C G40C], which self-cleavage is on record?
The self-cleavage was 0.01.

For GGCAGAACUCAACACAGCUUGGCAAAGCGGCUGUGUCUAGACUGCC [G7A G19U U28C G36U], which self-cleavage is on record?
The self-cleavage was 0.05.

Which self-cleavage does the source give for GGCAGAACUCAACACAGCGUAGCAUAGAGGCUGUGGCUAGACUGCC [G7A G21A A25U U28A] here?
The self-cleavage was 0.03.

With GGCAGAACUCAACACAGCGUUGCCCAGUGGCUGUGGCUAGACUGCC [G7A G21U A24C A25C] as the variant, how does the self-cleavage read?
Its self-cleavage is 0.06.

For GGCAGAACUCAACACAGCGUUGCAAAGUGGCUGUAGCUAGACUGCC [G7A G21U G35A], which self-cleavage is on record?
The self-cleavage was 0.11.

For GGCAGAACUCAACACAGCGUGAUAAAAUGGCUGUGGCUAGACUGCC [G7A G22A C23U G27A], which self-cleavage is on record?
The self-cleavage was 0.03.

For GGCAGAACUCAACACAGCGUGAUAAAGUGGCUGUGGCGAGACUUCA [G7A G22A C23U U38G G44U C46A], which self-cleavage is on record?
Its self-cleavage is 0.01.

Which self-cleavage does the source give for GGCAGAACUCAACACAGCGUGACAAAGGGGCUGUGGCUAGACUGAA [G7A G22A U28G C45A C46A] here?
Its self-cleavage is 0.04.

For GGCAGAACUCAACACAGCGUGCCAAAGUGAGUGUGGCUAGACUGCC [G7A G22C G30A C31G], which self-cleavage is on record?
Its self-cleavage is 0.06.

For GGCAGAACUCAACACAGCGUGCCAAAGUGGCUCUGGCUAGACAGCU [G7A G22C G33C U43A C46U], which self-cleavage is on record?
The self-cleavage was 0.11.

For GGCAGAACUCAACACAGCGUGUCAAAGUGGCUGUGGCUAGUAUGCU [G7A G22U A41U C42A C46U], which self-cleavage is on record?
Its self-cleavage is 0.02.

Which self-cleavage does the source give for GGCAGAACUCAACACAGCGUGUCAAAGUGGCUUUGCCUAGACUGCC [G7A G22U G33U G36C] here?
Its self-cleavage is 0.07.

For GGCAGAACUCAACACAGCGUGGCAAAAUGUCUGUGGCUAGACUGCC [G7A G27A G30U], which self-cleavage is on record?
Its self-cleavage is 0.22.

With GGCAGAACUCAACACAGCGUGGCAAAAUGGCUGUGUCUAGACUGCC [G7A G27A G36U] as the variant, how does the self-cleavage read?
The self-cleavage was 0.04.

For GGCAGAACUCAACACAGCGUGGCAAACUGGGUGCGGCUAGACUGCC [G7A G27C C31G U34C], which self-cleavage is on record?
Its self-cleavage is 0.05.

With GGCAGAACUCAACACAGCGUGGCAAACUGGCUGUCGCUAGACUGCC [G7A G27C G35C] as the variant, how does the self-cleavage read?
Its self-cleavage is 0.01.

Which self-cleavage does the source give for GGCAGAACUCAACACAGCGUGGCAAACUGGCUGUGGCGAGACUGCC [G7A G27C U38G] here?
The self-cleavage was 0.01.

Which self-cleavage does the source give for GGCAGAACUCAACACAGCGUGGCAAAUUGGCUGUGGCUAGACUGCG [G7A G27U C46G] here?
Its self-cleavage is 0.14.

Which self-cleavage does the source give for GGCAGAACUCAACACAGCGUGGCAAAUUGGCUCUGGCUAGACUUCC [G7A G27U G33C G44U] here?
Its self-cleavage is 0.21.

For GGCAGAACUCAACACAGCGUGGCAAAUUGGCUGUGGCUAGACCGCC [G7A G27U U43C], which self-cleavage is on record?
The self-cleavage was 0.43.

Which self-cleavage does the source give for GGCAGAACUCAACACAGCGUGGCAAAGUCGCUGUGGCUAGAUUGCC [G7A G29C C42U] here?
Its self-cleavage is 0.11.

Which self-cleavage does the source give for GGCAGAACUCAACACAGCGUGGCAAAGUCGCUCUGGCCAGACUGAC [G7A G29C G33C U38C C45A] here?
The self-cleavage was 0.1.

Which self-cleavage does the source give for GGCAGAACUCAACACAGCGUGGCAAAGUCGCUGUGCCUAGACUGCC [G7A G29C G36C] here?
The self-cleavage was 0.02.

For GGCAGAACUCAACACAGCGUGGCAAAGUUGCUGUGGCUGGACUUCC [G7A G29U A39G G44U], which self-cleavage is on record?
Its self-cleavage is 0.11.

With GGCAGAACUCAACACAGCGUGGCAAAGUUGAUCUGGCUAGACCACU [G7A G29U C31A G33C U43C G44A C46U] as the variant, how does the self-cleavage read?
Its self-cleavage is 0.05.

Which self-cleavage does the source give for GGCAGAACUCAACACAGCGUGGCAAAGUUGCUGUGGCUAGACUGGC [G7A G29U C45G] here?
Its self-cleavage is 0.2.

Which self-cleavage does the source give for GGCAGAACUCAACACAGCGUGGCAAAGUGACUGUGGCUAGACUGAC [G7A G30A C45A] here?
The self-cleavage was 0.12.

Which self-cleavage does the source give for GGCAGAACUCAACACAGCGUGGCAAAGUGCCUGUGGCUCGAUUGCC [G7A G30C A39C C42U] here?
Its self-cleavage is 0.19.

With GGCAGAACUCAACACAGCGUGGCAAAGUGCCUGUGCCUAGACUGCC [G7A G30C G36C] as the variant, how does the self-cleavage read?
The self-cleavage was 0.13.

With GGCAGAACUCAACACAGCGUGGCAAAGUGGCUACGGUUAGACUGCC [G7A G33A U34C C37U] as the variant, how does the self-cleavage read?
Its self-cleavage is 0.05.

For GGCAGAACUCAACACAGCGUGGCAAAGUGGCUGUACCUAGACUGCC [G7A G35A G36C], which self-cleavage is on record?
Its self-cleavage is 0.16.

With GGCAGAACUCAACACAGCGUGGCAAAGUGGCUGUCGCUAGAAUGCC [G7A G35C C42A] as the variant, how does the self-cleavage read?
The self-cleavage was 0.05.

With GGCAGAACUCAACACAGCGUGGCAAAGUGGCUGUUGCUAGCCUGCC [G7A G35U A41C] as the variant, how does the self-cleavage read?
The self-cleavage was 0.05.

Which self-cleavage does the source give for GGCAGAACUCAACACAGCGUGGCAAAGUGGCUGUUGCUAAACUGCC [G7A G35U G40A] here?
Its self-cleavage is 0.02.

Which self-cleavage does the source give for GGCAGAACUCAACACAGCGUGGCAAAGUGGCUGUUGCUAGACUACC [G7A G35U G44A] here?
Its self-cleavage is 0.24.

Which self-cleavage does the source give for GGCAGAACUCAACACAGCGUGGCAAAGUGGCUGUUGCGAGUAUGCC [G7A G35U U38G A41U C42A] here?
The self-cleavage was 0.01.

With GGCAGAACUCAACACAGCGUGGCAAAGUGGCUGUGACUGGACUGCC [G7A G36A A39G] as the variant, how does the self-cleavage read?
The self-cleavage was 0.1.
